# This is one part of the list.
# B1: CFEM-SCL (Saccharomyces cerevisiae), O13547 (protein)
# chain: MRATTLLSSVVSLALLSKEVLATPPACLLACVAQVGKSSSTCDSLNQVTCYCEHENSAVKKCLDSICPNNDADAAYSAFKSSCSEQNASLGD
# Key:
# Test in all cases: glycan array binding signal (z-score within array); higher = stronger binding
# Conditions in all cases: glycan notation: IUPAC condensed, linker removed
# [1] = target: Man(a1-2)Man(a1-3)[Man(a1-2)Man(a1-6)]Man
# Procedure, shortened: (§1)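 Glycan array data were curated from 3228 arrays in the Consortium for Functional Glycomics database and kept only where the protein sequence was available. Glycan names were converted to IUPAC-condensed notation, and columns mapping to the same glycan were averaged. The binding signal is a within-array Z-score, averaged across arrays of the same protein sequence at different concentrations or buffers and across linkers. Negative Z-scores can be read as non-binding.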
# [2] = target: Man(a1-2)Man(a1-3)[Man(a1-2)Man(a1-6)]Man(a1-6)[Man(a1-2)Man(a1-2)Man(a1-3)]Man
# Procedure, shortened: as §1
# [3] = target: Man(a1-2)Man(a1-3)[Man(a1-2)Man(a1-6)]Man(a1-6)[Man(a1-2)Man(a1-2)Man(a1-3)]Man(b1-4)GlcNAc(b1-4)GlcNAc
# Procedure, shortened: as §1
# [4] = target: Man(a1-2)Man(a1-3)[Man(a1-6)]Man(a1-6)[Man(a1-2)Man(a1-3)]Man(b1-4)GlcNAc(b1-4)GlcNAc
# Procedure, shortened: as §1
# [5] = target: Man(a1-2)Man(a1-6)[Man(a1-3)]Man(a1-6)[Man(a1-2)Man(a1-2)Man(a1-3)]Man
# Procedure, shortened: as §1
# [6] = target: Man(a1-2)Man(a1-6)[Man(a1-3)]Man(a1-6)[Man(a1-2)Man(a1-2)Man(a1-3)]Man(b1-4)GlcNAc(b1-4)GlcNAc
# Procedure, shortened: as §1
# Man(a1-3)[Man(a1-6)]Man = target: Man(a1-3)[Man(a1-6)]Man
# Procedure, shortened: as §1
# [7] = target: Man(a1-3)[Man(a1-6)]Man(a1-6)[Man(a1-2)Man(a1-3)]Man(b1-4)GlcNAc(b1-4)GlcNAc
# Procedure, shortened: as §1
# [8] = target: Man(a1-3)[Man(a1-6)]Man(a1-6)[Man(a1-3)]Man
# Procedure, shortened: as §1
# [9] = target: Man(a1-3)[Man(a1-6)]Man(a1-6)[Man(a1-3)]Man(b1-4)GlcNAc(b1-4)GlcNAc
# Procedure, shortened: as §1
# [10] = target: Man(a1-3)[Man(a1-6)]Man(b1-4)GlcNAc(b1-4)GlcNAc
# Procedure, shortened: as §1
# [11] = target: Man(a1-3)[Man(a1-6)]Man(b1-4)GlcNAc(b1-4)[Fuc(a1-6)]GlcNAc
# Procedure, shortened: as §1
# Man(a1-6)Man = target: Man(a1-6)Man
# Procedure, shortened: as §1
# Man(b1-4)GlcNAc = target: Man(b1-4)GlcNAc
# Procedure, shortened: as §1
# MurNAc(b1-4)GlcNAc = target: MurNAc(b1-4)GlcNAc
# Procedure, shortened: as §1
# Neu5Ac(a2-3)Gal = target: Neu5Ac(a2-3)Gal
# Procedure, shortened: as §1
# [12] = target: Neu5Ac(a2-3)Gal(b1-3)GalNAc
# Procedure, shortened: as §1
# [13] = target: Neu5Ac(a2-3)Gal(b1-3)GalNAc(b1-3)Gal(a1-4)Gal(b1-4)Glc
# Procedure, shortened: as §1
# [14] = target: Neu5Ac(a2-3)Gal(b1-3)GalNAc(b1-4)[Neu5Ac(a2-3)]Gal(b1-4)Glc
# Procedure, shortened: as §1
# [15] = target: Neu5Ac(a2-3)Gal(b1-3)GalNAc(b1-4)[Neu5Ac(a2-8)Neu5Ac(a2-3)]Gal(b1-4)Glc
# Procedure, shortened: as §1
# [16] = target: Neu5Ac(a2-3)Gal(b1-3)GalNAc6S
# Procedure, shortened: as §1
# [17] = target: Neu5Ac(a2-3)Gal(b1-3)GlcNAc
# Procedure, shortened: as §1
# [18] = target: Neu5Ac(a2-3)Gal(b1-3)GlcNAc(b1-2)Man
# Procedure, shortened: as §1
# [19] = target: Neu5Ac(a2-3)Gal(b1-3)GlcNAc(b1-2)Man(a1-3)[GlcNAc(b1-4)][Neu5Ac(a2-3)Gal(b1-3)GlcNAc(b1-2)Man(a1-6)]Man(b1-4)GlcNAc(b1-4)GlcNAc
# Procedure, shortened: as §1
# [20] = target: Neu5Ac(a2-3)Gal(b1-3)GlcNAc(b1-2)Man(a1-3)[Neu5Ac(a2-3)Gal(b1-3)GlcNAc(b1-2)Man(a1-6)]Man(b1-4)GlcNAc(b1-4)GlcNAc
# Procedure, shortened: as §1
# [21] = target: Neu5Ac(a2-3)Gal(b1-3)GlcNAc(b1-3)Gal(b1-3)GlcNAc
# Procedure, shortened: as §1
# [22] = target: Neu5Ac(a2-3)Gal(b1-3)GlcNAc(b1-3)Gal(b1-4)GlcNAc
# Procedure, shortened: as §1
# [23] = target: Neu5Ac(a2-3)Gal(b1-3)GlcNAc(b1-3)GalNAc
# Procedure, shortened: as §1
# [24] = target: Neu5Ac(a2-3)Gal(b1-3)GlcNAc(b1-4)Gal(b1-4)Glc
# Procedure, shortened: as §1
# [25] = target: Neu5Ac(a2-3)Gal(b1-3)GlcNAc(b1-6)GalNAc
# Procedure, shortened: as §1
# [26] = target: Neu5Ac(a2-3)Gal(b1-3)GlcNAc6S
# Procedure, shortened: as §1
# [27] = target: Neu5Ac(a2-3)Gal(b1-3)[Fuc(a1-4)]GlcNAc
# Procedure, shortened: as §1
# [28] = target: Neu5Ac(a2-3)Gal(b1-3)[Fuc(a1-4)]GlcNAc(b1-3)Gal(b1-3)[Fuc(a1-4)]GlcNAc
# Procedure, shortened: as §1
# [29] = target: Neu5Ac(a2-3)Gal(b1-3)[Fuc(a1-4)]GlcNAc(b1-3)Gal(b1-4)[Fuc(a1-3)]GlcNAc
# Procedure, shortened: as §1
# [30] = target: Neu5Ac(a2-3)Gal(b1-3)[GlcNAc(b1-6)]GalNAc
# Procedure, shortened: as §1
# [31] = target: Neu5Ac(a2-3)Gal(b1-3)[Neu5Ac(a2-6)]GalNAc
# Procedure, shortened: as §1
# [32] = target: Neu5Ac(a2-3)Gal(b1-3)[Neu5Ac(a2-6)]GlcNAc(b1-3)[Fuc(a1-3)[Gal(b1-4)]GlcNAc(b1-6)]Gal(b1-4)Glc
# Procedure, shortened: as §1
# [33] = target: Neu5Ac(a2-3)Gal(b1-3)]Neu5Ac(a2-3)Gal(b1-4)]GlcNAc
# Procedure, shortened: as §1
binder,measurement,setting,value
B1,glycan array binding signal (z-score),[1],-0.249
same,glycan array binding signal (z-score),[2],-0.133
same,glycan array binding signal (z-score),[3],-0.255
same,glycan array binding signal (z-score),[4],-0.174
same,glycan array binding signal (z-score),[5],-0.304
same,glycan array binding signal (z-score),[6],-0.252
same,glycan array binding signal (z-score),Man(a1-3)[Man(a1-6)]Man,-0.216
same,glycan array binding signal (z-score),[7],-0.231
same,glycan array binding signal (z-score),[8],-0.302
same,glycan array binding signal (z-score),[9],-0.255
same,glycan array binding signal (z-score),[10],-0.271
same,glycan array binding signal (z-score),[11],-0.235
same,glycan array binding signal (z-score),Man(a1-6)Man,0.021
same,glycan array binding signal (z-score),Man(b1-4)GlcNAc,-0.254
same,glycan array binding signal (z-score),MurNAc(b1-4)GlcNAc,-0.324
same,glycan array binding signal (z-score),Neu5Ac(a2-3)Gal,-0.351
same,glycan array binding signal (z-score),[12],-0.326
same,glycan array binding signal (z-score),[13],-0.203
same,glycan array binding signal (z-score),[14],-0.299
same,glycan array binding signal (z-score),[15],-0.319
same,glycan array binding signal (z-score),[16],-0.34
same,glycan array binding signal (z-score),[17],-0.285
same,glycan array binding signal (z-score),[18],-0.012
same,glycan array binding signal (z-score),[19],-0.147
same,glycan array binding signal (z-score),[20],-0.331
same,glycan array binding signal (z-score),[21],-0.21
same,glycan array binding signal (z-score),[22],-0.35
same,glycan array binding signal (z-score),[23],-0.343
same,glycan array binding signal (z-score),[24],-0.204
same,glycan array binding signal (z-score),[25],-0.275
same,glycan array binding signal (z-score),[26],-0.283
same,glycan array binding signal (z-score),[27],-0.204
same,glycan array binding signal (z-score),[28],-0.195
same,glycan array binding signal (z-score),[29],-0.234
same,glycan array binding signal (z-score),[30],-0.226
same,glycan array binding signal (z-score),[31],-0.091
same,glycan array binding signal (z-score),[32],-0.267
same,glycan array binding signal (z-score),[33],-0.332

# — the supplement of paper PMC8728848
